Method: Selected derivatives formed in accordance with the present invention were tested for solubility using the following protocol: Into an 1 ml glass vial was added 50 mg of the sample to be tested. Water (or other desired solvent) was added portion by portion (50 micro liter per portion) at an interval of 10 minutes until a clear solution was obtained. An ultrasonic bath was employed to enhance the solubilizing process. The weight of the water
added was determined by an analytical balance.

Ascorbyl phosphate of 5α-androststan-3β-ol-17- one, Disodium salt
Solubility in ethanol: Soluble in water (9.5%, w/w) Slightly soluble in ethanol
Solubility in water: Soluble in water (9.5%, w/w) Slightly soluble in ethanol

From patent US20030232797A1, “Novel derivatives of androstane and androstene with ascorbic acid and use thereof in treating or preventing various conditions, diseases, and disorders” (priority 2002, published 2003)
